Values joined by “and” are separate entries in the source; they are usually repeats but may differ in a detail not shown here. Identical values can stand only once. The whole screen tested about 280,000 compounds, of which about 1,100 (0.39%) were called active. The shares of active, inactive and inconclusive entries below differ from those in the screen. The call rests on the fitted dose curve; in most records, active means well fitted inhibition curve with a large enough effect; inconclusive means small, poorly fitted or top-dose-only effect, or effect the other way; inactive means flat fitted curve, though single readings scatter. Potencies of inconclusive entries are doubtful fits and often do not repeat.
biological target: Microtubule-associated protein tau (Homo sapiens) (UniProt P10636); test: qHTS for Inhibitors of Tau Fibril Formation, Fluorescence Polarization; conditions: K18 P301L tau heparin fibrillization, Alexa594 FP, 6 h; series mostly up to 57.7 µM; further: nearly all actives have a fitted effect of over 55% in size
Method in brief: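 Compound effects on tau fibrillization are measured by Alexa 594 fluorescence polarization (ex 555, em 632 nm). K18 P301L tau is used at 15 uM with 0.24 uM labeled tracer, and 20 uM heparin induces aggregation over 6 hr at 37 C.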
Potency means the concentration at half of the fitted maximal effect; tags describe the fitted curve by direction and shape.

UniProt P10636, sequence (P10636 whole entry, looked up): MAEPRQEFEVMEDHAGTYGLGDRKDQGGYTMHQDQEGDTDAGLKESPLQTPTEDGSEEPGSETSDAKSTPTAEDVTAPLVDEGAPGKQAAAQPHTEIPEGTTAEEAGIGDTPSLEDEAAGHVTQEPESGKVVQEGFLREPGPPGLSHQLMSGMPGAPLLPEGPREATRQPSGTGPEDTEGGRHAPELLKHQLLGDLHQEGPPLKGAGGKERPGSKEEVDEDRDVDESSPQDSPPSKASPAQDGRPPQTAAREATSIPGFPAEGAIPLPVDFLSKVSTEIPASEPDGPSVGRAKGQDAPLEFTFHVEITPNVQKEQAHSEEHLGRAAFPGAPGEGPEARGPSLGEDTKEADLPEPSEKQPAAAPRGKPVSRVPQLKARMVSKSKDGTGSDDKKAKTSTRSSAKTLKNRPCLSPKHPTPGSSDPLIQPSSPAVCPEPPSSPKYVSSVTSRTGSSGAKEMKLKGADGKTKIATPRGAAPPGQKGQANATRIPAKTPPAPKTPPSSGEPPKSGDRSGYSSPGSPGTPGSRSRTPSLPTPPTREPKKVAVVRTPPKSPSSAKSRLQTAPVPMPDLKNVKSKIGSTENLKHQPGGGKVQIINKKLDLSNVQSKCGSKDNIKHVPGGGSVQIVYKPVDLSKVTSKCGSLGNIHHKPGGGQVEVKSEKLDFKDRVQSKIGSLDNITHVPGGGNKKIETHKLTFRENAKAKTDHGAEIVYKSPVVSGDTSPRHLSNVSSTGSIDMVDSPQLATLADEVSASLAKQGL

Row | SMILES | Potency
1 | CCCCC[n+]1cccc2c3ccccc3ccc21 | inactive
2 | COc1ccc(-c2nc(CSCC(=O)NCCc3ccc(C)cc3)c(C)o2)cc1OC | inactive
3 | O=C(Cc1cccs1)NCCSc1c(-c2ccc(Cl)cc2)[nH]c2ccccc12 | inactive
4 | O=C(CSc1nnc(Cc2ccccc2)o1)NC1CC2CCC1C2 (stereo unspecified) | inactive
5 | O=C(CSc1ccc(Br)c2cccc(Cl)c12)Nc1ccc(S(=O)(=O)Nc2nccs2)cc1 | inconclusive: 7.94 µM [inhibitor, full curve, poor fit]
6 | O=C(NNC(=O)C12CC3CC(CC(C3)C1)C2)c1cnccn1 | inactive
7 | CCOc1ccc(CNC(=O)c2ccc(NC(=O)c3nsc4ccccc34)cc2)cc1 | inconclusive: 14.1 µM [inhibitor, partial curve]
8 | Cc1c(C(=O)NCc2ccc(Cl)cc2)sc2nc3n(c(=O)c12)CCCC3 | inconclusive: 28.2 µM [inhibitor, partial curve]
9 | CCN(CC)CCCNC(=O)c1c(C)oc2ncnc(N3CCOCC3)c12 | inactive
10 | COCc1cc(C)[nH]c(=O)c1C(=O)NC12CC3CC(CC(C3)C1)C2 | inconclusive: 0.891 µM [inhibitor, single point]
11 | Cc1nn(-c2ccccc2)c(N2CCCC2)c1/C=N/NC(=O)c1ccccc1O | inactive
12 | CC1(C)CC(=O)C2=C(C1)NC(SCC(=O)Nc1ccccc1)=C(C#N)C21CCCCC1 | inconclusive: 28.2 µM [inhibitor, partial curve]
13 | COc1ccc2nc(NC(=O)c3ccc(S(=O)(=O)N4CCC(C)CC4)cc3)sc2c1 | inactive
14 | CCCSc1cc(N2CCN(C)CC2)nc(-c2ccc(OC)cc2)n1 | inconclusive: 15.8 µM [inhibitor, partial curve]
15 | Cc1cc(NC(=O)Nc2ccc(Cl)c(Cl)c2)n(-c2ccccc2)n1 | inconclusive: 28.2 µM [inhibitor, partial curve]
16 | CCOc1cccc2sc(NC(=O)c3ccc(S(=O)(=O)N4CCCc5ccccc54)cc3)nc12 | inconclusive: 22.4 µM [inhibitor, partial curve]
17 | O=C(Nc1ccc(C(F)(F)F)cc1)c1cc(S(=O)(=O)NC2CCCCCC2)ccc1F | inconclusive: 39.8 µM [inhibitor, single point]
18 | Cc1nc2ccccn2c(=O)c1CCN1CCC(C(=O)c2ccc(F)cc2)CC1 | inactive and inconclusive: 39.8 µM [inhibitor, single point]
19 | CC(=O)N1c2ccccc2C(CBr)=CC1(C)C | inactive
20 | O=C(Nc1ccc([N+](=O)[O-])cc1)c1nc[nH]c1C(=O)NC1CCCCC1 | inconclusive: 20 µM [inhibitor, partial curve, poor fit]
21 | COc1ccc(Nc2ccc([N+](=O)[O-])cc2[N+](=O)[O-])cc1 | inactive
22 | COC(=O)c1ccc(NC(=O)COc2ccc(C3C(C#N)=C(N)Oc4c3ccc3ccccc43)cc2OC)cc1 (stereo unspecified) | inconclusive: 22.4 µM [inhibitor, single point]
23 | CCN(CC)CCNC(=O)c1ccc(N2CCCCC2)c(NS(=O)(=O)c2ccc(C)cc2)c1 | inactive
24 | O=[N+]([O-])c1ccc(-c2ccc(/C=N/Nc3nc(NCc4ccccc4)nc(N4CCOCC4)n3)o2)cc1 | inconclusive: 3.98 µM [activator, single point]

Row | SMILES | Potency
25 | Clc1c(-c2nnc3n2CCC3)sc2ccccc12 | inactive
26 | S=c1[nH]nc(CCc2ccccc2)n1-c1ccccc1 | inactive
27 | O=C(CSc1nc(-c2ccccc2)c(-c2ccccc2)[nH]1)Nc1ccc2c(c1)OCO2 | inactive
28 | CCCCNC(=O)NNc1nc(Cl)cc(C)c1C#N | inactive
29 | Cc1cnc(C(=O)Nc2nc(-c3ccccc3)cs2)cn1 | inactive
30 | CCCCN1CC(c2nc3ccccc3n2CCCCOc2ccccc2C)CC1=O (stereo unspecified) | inactive
31 | CNc1ccccc(-c2ccc3ccccc3n2)c1=O | inactive
32 | CC(C)(C)c1ccc(C(=O)NCC(=O)OCC(=O)Nc2ccc3c(c2)OCCO3)cc1 | inactive
33 | Cc1ccc(N2C(=O)C(CC(=O)Nc3ccc(F)cc3)N(CCC3=CCCCC3)C2=O)cc1 (stereo unspecified) | inconclusive: 22.4 µM [inhibitor, partial curve]
34 | CCc1nc2ccccc2c(C(=O)OCC(=O)Nc2ccc(S(=O)(=O)N3CCOCC3)cc2)c1C | inconclusive: 11.2 µM [inhibitor, partial curve]
35 | Cc1ccc(-c2cn3c(n2)sc2cc(C(=O)NCCC4=CCCCC4)ccc23)c(C)c1 | inconclusive: 5.01 µM [inhibitor, partial curve]
36 | CCOc1ccc2nc(NC(=O)COc3ccc(N(C)S(=O)(=O)c4ccc(C)cc4)cc3)sc2c1 | inconclusive: 17.8 µM [inhibitor, single point]
37 | C=CCSc1nnc(NC(=O)CSc2nc3ccccc3[nH]2)s1 | inconclusive: 44.7 µM [inhibitor, single point]
38 | C[C@@H]1CN(Cc2nc(-c3cccs3)no2)C[C@H](C)O1 | inactive
39 | COc1cc2c(C)c3c4c(cc(OC)c(OC)c4c2cc1OC)CCN3C | inconclusive: 12.6 µM [activator, partial curve]
40 | Cc1nc2c(c(C)c1CCC(=O)N1CCN(c3ccccc3)CC1)c(=O)n(C)c(=O)n2C | inactive
41 | CN(C)CCN(C(=O)c1ccccc1Cl)c1nc2c(Cl)cccc2s1 | inactive
42 | COCCOC(=O)c1c(NC(=O)CN2c3ccccc3CC2C)sc(C(N)=O)c1C (stereo unspecified) | inconclusive: 8.91 µM [inhibitor, single point]
43 | Cn1c(=O)c(-c2cc(=O)[nH][nH]2)c(O)c2ccccc21 | inconclusive: 0.0631 µM [inhibitor, full curve]
44 | CCOP(=O)(OCC)C(NC(=O)c1cc([N+](=O)[O-])cc([N+](=O)[O-])c1)C(F)(F)F (stereo unspecified) | inconclusive: 14.1 µM [inhibitor, partial curve]
45 | COC(=O)C(C)Sc1nnc(Cc2cc(=O)[nH]c(=O)[nH]2)n1-c1cccc(OC)c1 (stereo unspecified) | inconclusive: 22.4 µM [inhibitor, partial curve, poor fit]
46 | Cc1onc(-c2ccccc2Cl)c1C(=O)Nc1ccc(CN2CCCC2)cc1 | inactive
47 | CC(C)(C)OC(=O)N1CCC(c2c(C(=O)NCCN3CCC(Cc4ccccc4)CC3)cnn2-c2cccc(Cl)c2)CC1 | inactive
48 | Clc1cccc(-n2ncc3c(NC4CCCCC4)ncnc32)c1 | inconclusive: 35.5 µM [inhibitor, single point]

Row | SMILES | Potency
49 | CCCn1c(/N=C/c2c[nH]c3ccccc23)nc2ccccc21 | inconclusive: 35.5 µM [inhibitor, single point]
50 | CC(C)(C)c1ccc(S(=O)(=O)N2CCC(c3nc4ccc(Cl)cc4[nH]3)CC2)cc1 | inconclusive: 17.8 µM [inhibitor, partial curve]
51 | COc1ccccc1/C=N/n1c(N)c(S(=O)(=O)c2cccs2)c2nc3ccccc3nc21 | inconclusive: 20 µM [inhibitor, partial curve]
52 | Fc1ccc2[nH]c3c(N4CCN(Cc5ccc6c(c5)OCO6)CC4)ncnc3c2c1 | inconclusive: 12.6 µM [activator, partial curve]
53 | COc1ccccc1CNC(=O)c1ccccc1NC(=O)c1nsc2ccccc12 | inconclusive: 10 µM [inhibitor, partial curve, poor fit]
54 | O=C(NC(=S)Nc1ccc(N2CCOCC2)c(Cl)c1)c1cccs1 | inactive
55 | COc1cc(OC)c(NC(=O)c2nnn(Cc3ccc(C)cc3)c2N)cc1Cl | inconclusive: 10 µM [inhibitor, partial curve]
56 | Cc1ccc(NC(=O)c2c(NC(=O)c3ccco3)sc3c2CCC(C(C)(C)C)C3)c(C)c1 (stereo unspecified) | inactive
57 | CCOc1ccc(/C=N/NC(=O)c2cc(-c3ccco3)nc3ccccc23)cc1 | inactive
58 | CC1=CC(C)(C)N2C(=O)C3(C(C#N)=C(N)Oc4cc(O)ccc43)c3c(C)c(C)cc1c32 (stereo unspecified) | inconclusive: 35.5 µM [inhibitor, partial curve]
59 | CN1CCN(C(=O)c2ccccc2-c2nc(-c3ccccc3)no2)CC1 | inconclusive: 8.91 µM [inhibitor, single point]
60 | COc1cccc(CSc2nc3cc4c(cc3cc2C)OCCO4)c1 | inconclusive: 44.7 µM [inhibitor, single point]
61 | O=C(c1cc2cc(Br)ccc2oc1=O)N1CCCC1 | inactive
62 | COc1cccc(NC(=O)Nc2cc(NC(=O)Nc3cccc(OC)c3)c(C)nc2C)c1 | active: 22.4 µM
63 | C=C1C2CC[C@]3(CCC4[C@@]5(C)CCC[C@@]4(CN(CCO)C5)[C@@H]3C2)[C@@H]1O (stereo partly specified) | inactive
64 | C=CCC(C)(NCc1ccccc1)c1ccccc1 (stereo unspecified) | inactive
65 | COc1ccccc1CNS(=O)(=O)c1ccc2[nH]c3c(c2c1)CCCCC3 | inconclusive: 14.1 µM [activator, partial curve]
66 | COc1ccc2c(c1)S(=O)(=O)c1ccccc1N2 | inactive
67 | COc1ccc(-c2cc3nc(-c4ccccc4)cc(C(F)(F)F)n3n2)cc1 | inconclusive: 15.8 µM [inhibitor, partial curve, poor fit]
68 | O=C(Nc1cccnc1Cl)c1ccc2c(Cl)c3c(nc2c1)CCC3 | inconclusive: 44.7 µM [inhibitor, single point]
69 | Cc1[nH]c2c(ccc3ccccc32)c1C1C(CCN)C1(C)C (stereo unspecified) | inconclusive: 31.6 µM [activator, single point]
70 | O=C(NCc1ccccc1Br)C1CCCN(C(=O)N2CCOc3ccccc32)C1 (stereo unspecified) | inconclusive: 35.5 µM [inhibitor, partial curve, poor fit]
71 | COc1ccc(OC)c(-n2c(-c3cccc(O)c3)n[nH]c2=S)c1 | inactive
